{"source": "patent US20030050248A1", "about": "(priority 2000, published 2003)", "note": "Peptide text beside a SMILES is read from it. * marks the point of attachment. Fmoc = O=C(OCC1c2ccccc2-c2ccccc21)*; X1 = O=C(Sc1ccccc1)*"}
{"tested_on": "Staphylococcus", "assay": "not given", "conditions": "overnight incubation, non-turbid well", "units": {"MIC (minimal inhibitory concentration) +/− sem": "µg/mL"}}
{"smiles": "C[C@@H](O)[C@H](NC(=O)[C@H](Cc1cn(C(=O)Sc2ccccc2)c2ccccc12)NC(=O)[C@@H]1CCCN1C(=O)[C@H](CO)NC(=O)[C@H](Cc1ccc(O)cc1)NC(=O)OCC1c2ccccc2-c2ccccc21)C(=O)N[C@@H](CC(N)=O)C(=O)N[C@@H](Cc1ccccc1)C(=O)O", "note": "[VIF-1, (Fmoc-Tyr)-Ser-Pro-Trp(phenylthiocarbamate)-Thr-Asn-Phe] (Fmoc-YSPW(X1)TNF-OH; C-terminus assumed)", "MIC (minimal inhibitory concentration) +/− sem": 25}
{"smiles": "N[C@@H](Cc1c[nH]c2ccccc12)C(=O)O", "note": "[Reference #46, H-L-Trp-OH]", "MIC (minimal inhibitory concentration) +/− sem": 50}
{"smiles": "O=C(NCCCC[C@H](NC(=O)OCC1c2ccccc2-c2ccccc21)C(=O)O)OCc1ccccc1", "note": "[Reference #69, Fmoc-L-Lys(Z)-OH]", "MIC (minimal inhibitory concentration) +/− sem": 50}
{"smiles": "CC(C)(C)OC(=O)n1cc(C[C@H](NC(=O)OCC2c3ccccc3-c3ccccc32)C(=O)O)c2ccccc21", "note": "[Reference #35, Fmoc-L-Trp(Boc)-OH]", "MIC (minimal inhibitory concentration) +/− sem": "12.5 ± 0"}
{"smiles": "O=C(Nc1ccccc1C(=O)O)OCC1c2ccccc2-c2ccccc21", "note": "[Reference #4, Fmoc-2-aminobenzoic acid]", "MIC (minimal inhibitory concentration) +/− sem": "7.2 ± 1.6"}
{"smiles": "O=C(O)[C@H]1c2ccccc2CCN1C(=O)OCC1c2ccccc2-c2ccccc21", "note": "[Reference #16]", "MIC (minimal inhibitory concentration) +/− sem": 25}
{"smiles": "O=C(NC1(C(=O)O)CCCCC1)OCC1c2ccccc2-c2ccccc21", "note": "[Reference #86, Fmoc-1-amino-1-cyclohexane carboxylic acid]", "MIC (minimal inhibitory concentration) +/− sem": "50 ± 0"}
{"smiles": "O=C(O)[C@@H]1CC[C@H](c2ccccc2)N1C(=O)OCC1c2ccccc2-c2ccccc21", "note": "[Reference #113, (2S,5R)-Fmoc-5-phenyl-pyrrolidine-2-carboxylic acid]", "MIC (minimal inhibitory concentration) +/− sem": 25}
{"smiles": "O=C(N[C@@H](C/C=C/c1ccccc1)C(=O)O)OCC1c2ccccc2-c2ccccc21", "note": "[Reference #124, Fmoc-L-styrylalanine]", "MIC (minimal inhibitory concentration) +/− sem": 25}
{"tested_on": "Staphylococcus", "assay": "microbe, parasite or virus in culture", "conditions": "read-out: MIC (minimal inhibitory concentration) +/− sem", "units": {"MIC": "µg/mL"}}
{"smiles": "NC(=O)NCCC[C@H](NC(=O)OCC1c2ccccc2-c2ccccc21)C(=O)O", "note": "[Reference #105, Fmoc-L-citrulline]", "MIC": 50}
